In PubChem BioAssay AID1159614 (National Center for Advancing Translational Sciences (NCATS), 2016):
Screen size: about 45,000 compounds; about 65 (0.1%) were called active. Calls follow the shape of the dose curve; as a rule, active = well fitted activation curve with a large enough effect; inconclusive = small, poorly fitted or top-dose-only effect; inactive = no such curve, though single readings can be large or run the other way. This is one part of the list.

Target: Galactocerebrosidase (Homo sapiens) (UniProt P54803)
Assay: A Novel Cell-Based Assay to Identify Small Molecules for B -Galactocerebrosidase; also: 0% is about no effect; nearly all actives have a fitted effect of over 65% in size
Details: 145M-Twi-hGALC-G270D cells (Twitcher mouse brain line with human GALC G270D), HMU-beta-Gal fluorescence, 48 h; series mostly up to 57.5 µM; activation: at the top concentration
How it was run: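 Brain-derived Twitcher mouse 145M-Twi cells stably expressing human GALC-G270D or wild-type GALC, treated live, then residual GALC activity read by fluorescence of HMU-b-Gal substrate (0.1 mM final) in citrate-phosphate buffer pH 5.2 with sodium taurocholate. Signal increase indicates enhancement.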

UniProt P54803, sequence (P54803 whole entry, looked up): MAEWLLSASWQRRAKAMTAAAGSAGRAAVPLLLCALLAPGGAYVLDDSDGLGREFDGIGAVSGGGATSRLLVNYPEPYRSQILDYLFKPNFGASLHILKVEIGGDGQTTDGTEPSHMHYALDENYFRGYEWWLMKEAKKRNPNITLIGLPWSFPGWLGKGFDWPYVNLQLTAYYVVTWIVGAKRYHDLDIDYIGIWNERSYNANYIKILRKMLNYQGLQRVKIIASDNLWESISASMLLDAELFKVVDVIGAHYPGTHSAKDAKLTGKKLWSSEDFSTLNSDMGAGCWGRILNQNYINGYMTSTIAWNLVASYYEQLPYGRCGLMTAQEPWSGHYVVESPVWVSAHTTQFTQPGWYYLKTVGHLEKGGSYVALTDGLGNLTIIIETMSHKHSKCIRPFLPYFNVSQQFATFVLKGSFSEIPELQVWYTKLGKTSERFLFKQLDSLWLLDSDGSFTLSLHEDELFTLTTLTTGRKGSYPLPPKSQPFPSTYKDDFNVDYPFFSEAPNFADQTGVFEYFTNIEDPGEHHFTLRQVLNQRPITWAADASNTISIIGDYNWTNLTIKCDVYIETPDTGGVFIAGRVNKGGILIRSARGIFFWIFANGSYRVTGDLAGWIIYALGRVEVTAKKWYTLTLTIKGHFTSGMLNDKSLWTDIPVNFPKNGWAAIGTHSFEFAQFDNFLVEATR

activation, inactive:
O=C(NCCc1ccccc1)c1cnc2sc(N3CCCC3)nn2c1=O -6.73%
CCCc1nn2c(=O)cc(COC(=O)c3cccc(NC(=O)COc4ccccc4C)c3)nc2s1 -28.3%
Cc1c(NC(=O)c2cccnc2)c(=O)n(-c2ccccc2)n1C -16%
COCCCNC(=O)c1oc2c(c1C)-c1nn(Cc3cccc(Cl)c3)cc1CC2 -34%
COc1ccccc1N1CCN(C(=O)c2nn(-c3ccc(C)cc3)c(=O)n(C)c2=O)CC1 -1.98%
COC(=O)C1=C(CS(=O)(=O)c2cc(Cl)ccc2OC)NC(=O)NC1c1ccccc1 (stereo not drawn) 18.3%
CCCCOc1ccc(C(=O)N2CCN(CCc3ccncc3)CC2)cc1 -19.3%
CC(=O)c1c(C)nc2nc(-c3ccccc3)nn2c1C -3.64%
Cc1cc2nnc(SCC(=O)Nc3ccc(F)c(Cl)c3)n2c2ccccc12 -4.62%
COc1cc(NS(=O)(=O)c2ccc3c(c2)CCN3S(C)(=O)=O)cc(OC)c1 -24.9%
CCOC(=O)c1ccc(Nc2c(-c3ccc(O)c(OC)c3)nc3nc[nH]n23)cc1 -5.57%
Cc1cc(F)ccc1S(=O)(=O)NCC(c1ccco1)S(=O)(=O)c1cccs1 (stereo not drawn) -16.9%
Cc1ccc(CNC(=O)C2CCCN(S(=O)(=O)c3cccc4nsnc34)C2)cc1 (stereo not drawn) -18.6%
CCc1ccc2c(c1)c(=O)c(S(=O)(=O)c1ccc(F)cc1)cn2CC(=O)Nc1ccc(C)cc1C 1.39%
CCCn1ccc2c(OCC(=O)NCc3ccc(C)cc3)cccc2c1=O -0.527%
CCc1nn2c(=O)cc(COC(=O)c3cccc(NC(=O)c4ccccc4Cl)c3)nc2s1 -9.7%
CS(=O)(=O)OCCCCOS(C)(=O)=O -20.5%
Cc1cc2ncn(CCCCOc3ccccc3)c2cc1C -9.35%
Cc1cccc(NC(=O)c2ccc(N(Cc3ccccc3)S(C)(=O)=O)cc2)c1 -11.5%
CCN(CCCNC(=O)c1cc2c(=O)n(C)c3ccccc3c2s1)Cc1ccccc1 -14.9%
Cc1ccc2c(c1)C(c1ccc(F)cc1)N(C(=O)COc1ccc(Cl)cc1Cl)CC(=O)N2 (stereo not drawn) -2.78%
COc1ccc(CNC(=O)c2cnc3sc(N4CCCC4)nn3c2=O)cc1OC 6.62%
O=C(CSc1c2c(nc3ccc(Cl)cc13)CCCC2)N1CCN(c2cccc(Cl)c2)CC1 -11.1%
Cc1ccc(C(=O)NCc2ccc(N(C)C)cc2)cc1NC(=O)c1nsc2ccccc12 -15.5%
CCOC(=O)c1cccc(NC(=O)CN2C(=O)c3ccccc3Sc3ncccc32)c1 -10.8%
CC1CCC(NC(=O)c2ccc3c(c2)N(Cc2ccccc2)C(=O)c2ccccc2S3=O)CC1 (stereo not drawn) 2.06%
CCOC(=O)c1c(C)[nH]c(CCC(=O)Nc2cc(C)ccc2OC)c1C -19.4%
COc1cc(-c2nnn(CC(=O)Nc3ccc(OC(F)(F)F)cc3)n2)cc(OC)c1OC -31.7%
Cc1cccn2c(=O)c(C(=O)NCCCN3CCCCC3C)c(O)nc12 (stereo not drawn) -6.45%
Cc1cc2oc(C(=O)Nc3c(C(=O)Nc4ccccc4)oc4ccccc34)cc(=O)c2cc1C 24.3%
Cc1cccc(C)c1NC(=O)c1oc2ccc3c(c2c1C)C(=O)CC(C)(C)O3 -0.976%
COc1ccccc1CNC(=O)C1CCCN(S(=O)(=O)c2ccc3c(c2)CCCN3C(C)=O)C1 (stereo not drawn) -15.1%
O=C(Cn1ncc2c1-c1ccccc1OC2)N1CCN(c2ccccc2F)CC1 -20.8%
Cc1nnc(NCc2ccccc2)c2c1nnn2Cc1ccccc1Cl -16.1%
CN1C(C(=O)Nc2ccc(F)cc2F)=CC(c2ccco2)=NS1(=O)=O -16.3%
O=C(CSCc1ccccc1Cl)N1CCN(c2ccc(F)cc2)CC1 -19.3%
COc1ccccc1N1CCN(C(=O)c2cc(S(=O)(=O)N3CCC(C)CC3)cn2C)CC1 -1.45%
COc1ccc(-c2nc(CNC(=O)Nc3ccccc3)c(C)o2)cc1 -23.4%
CCCN(c1ccc(C(C)C)cc1)S(=O)(=O)c1ccc2c(c1)oc(=O)n2CC(=O)OCC -18.2%
COc1cccc(Cn2c(CNS(=O)(=O)c3ccc(C(C)(C)C)cc3)nc3cccnc32)c1 -3.68%
COc1ccc(-n2c(=O)c3ccccc3n(Cc3cccc(C)c3)c2=O)cc1 -26.9%
COc1ccccc1N1CCN(CCCCNC(=O)c2ccc(-c3ccc(C(C)=O)cc3)cc2)CC1 -2.83%
Cc1ccccc1N(C)S(=O)(=O)c1nnc(NC(=O)C(C)C)s1 -12.8%
CCOC(=O)c1ccc(N2C(=O)c3n[nH]c(C)c3C2c2ccc(OCC)cc2)cc1 (stereo not drawn) -2.14%
CCOC(=O)Cn1c(=O)n(CC2CCCO2)c2nc(-c3ccc(C(C)C)cc3)nc(C(N)=O)c21 (stereo not drawn) -7.92%
CCCSc1nnc2[nH]c(=O)cc(C)n12 -16.6%
O=C(Nc1nnc(S(=O)(=O)Nc2ccccc2)s1)C1CCCCC1 -17.4%
NC(=O)CCCCC1CCSS1 (stereo not drawn) -25.7%
Cc1ccccc1NC(=O)Cn1c(=O)n(Cc2ccccc2)c(=O)c2sc3ccccc3c21 -5.8%
CCOc1ccc(C(=O)NCC(c2ccco2)S(=O)(=O)c2cccs2)cc1 (stereo not drawn) -20.2%
COC(=O)c1ccc(C(=O)OC)c(NC(=O)c2cnn3c(C(F)F)cc(-c4ccccc4)nc23)c1 -10.6%
CCN(Cc1ccccc1)C(=O)c1nn(-c2ccc(OC)cc2)c(=O)c2c1c1ccccc1n2C -0.717%
Cc1ccccc1-c1nn2c(=O)cc(CN3CCN(S(=O)(=O)c4ccc(Cl)cc4)CC3)nc2s1 4.34%
CCOc1ccc(OCC)c(NC(=O)CCc2nc3cccnc3n2-c2ccccc2)c1 -13.1%
COc1ccccc1N1CCN(C(=O)CSc2n[nH]c(-c3ccccc3Cl)n2)CC1 -11%
O=C(NCC(c1ccc(Cl)cc1)N1CCCCC1)c1ccccc1F (stereo not drawn) -28.3%
CCC1CN(C(=O)Nc2ccc(Br)cc2F)c2ccccc2S1 (stereo not drawn) -13.8%
Cc1ccccc1NC(=O)[C@H](CSCc1ccccc1)N1Cc2ccccc2C1=O -6.24%
COC(=O)C(NC(=O)CCc1c(C)nc2c(c(C)nn2-c2ccccc2)c1C)C(C)C (stereo not drawn) -13.7%
COc1ccc(NC(=O)Cn2c(=O)n(-c3cccc(C(F)(F)F)c3)c(=O)c3sccc32)cc1 -24.3%
Cc1[nH]c2ccccc2c1C1(O)C(=O)N(Cc2ccccc2Cl)c2ccccc21 (stereo not drawn) -14.1%
CCN(CC)C(=O)C1CCN(c2nnc(C)c3c(C)n(-c4ccc(Cl)cc4)nc23)CC1 0.0013%
C#CCn1c(C2CC(=O)N(c3ccc(OCC)cc3)C2)nc2ccccc21 (stereo not drawn) -14%
CCCOc1ccc(CNC(=O)C2CCCN(c3nc4c(C)cc(C)cc4s3)C2)cc1 (stereo not drawn) -15.1%
O=C(NCc1ccc(F)cc1)c1cnc(N2CCCCC2)c2ccccc12 -1.68%
COc1cc(OC)cc(C(=O)Nc2ccc3nc(Nc4cccc(C(F)(F)F)c4)cc(C)c3c2)c1 -10.9%
COc1cc(OC)c(NC(=O)N2CCc3cc(OC)c(OC)cc3C2CC(=O)O)cc1Cl (stereo not drawn) -10.7%
CCCCOC(=O)CSc1nnc(-c2ccc(C)cc2)o1 -1.87%
CC(C)c1ccc(C2c3c(-c4ccccc4O)n[nH]c3C(=O)N2Cc2ccncc2)cc1 (stereo not drawn) -12.5%
COc1ccc(C(=O)Nc2nnc(C)s2)cc1 -13.8%
CC(C)Cn1c(=O)c2ccccc2n2c(CCC(=O)N3CCN(c4ccccc4)CC3)nnc12 -11.7%
Cc1cccc(NC(=O)c2ccc(F)c(S(=O)(=O)N3CCC4(CC3)OCCO4)c2)c1 0.854%
Cc1ccc(CCNC(=O)c2ccc3c(c2)N(Cc2ccccc2)C(=O)c2ccccc2S3=O)cc1 (stereo not drawn) 2.32%
COc1ccc(N2CCN(c3ncnc4onc(-c5ccc(F)cc5)c34)CC2)cc1 -10.1%
COc1ccc(NC(=O)Cn2c(=O)n(CCCC(=O)NCCc3ccc(C)cc3)c(=O)c3ccccc32)cc1Cl -9.91%
O=C(CSc1nnc(-c2ccc(Cl)cc2)o1)Nc1ccc(F)cc1 -10.3%
COc1cccc2c1Oc1ncccc1N(c1ccc(C(=O)NCc3ccccc3Cl)s1)C2 -12.9%
CC(=O)N1CCc2c(sc3c2c(=O)n(CCc2ccccc2)c(=O)n3CC(=O)Nc2ccc(C)c(F)c2)C1 -4.3%
Cc1ccc(Cl)cc1NC(c1ccc(F)cc1)c1nnc(-c2ccccc2)o1 (stereo not drawn) 1.96%
Cc1ccn2c(Nc3ccc4c(c3)OCCO4)c(-c3cccs3)nc2c1 -12.6%
Cc1ccc2onc(CNC(=O)Nc3cc(F)ccc3F)c2c1 -20.5%
Cc1ccc2c(c1)Cc1c(nc(-c3ccc(Cl)cc3)nc1SCC(=O)N1CCCCC1)O2 -9.95%
COc1ccc(Nc2cc(C)nc3c(C)c(C)ccc23)cc1 -4.07%
CCc1ccc(C2CC(=O)c3c([nH]c(C(=O)OCCOc4ccccc4)c3C)C2)cc1 (stereo not drawn) -20.1%
CC(C)NC[C@@H](O)COc1ccc(CC(N)=O)cc1 -5.64%
NS(=O)(=O)c1cc2c(cc1C(F)(F)F)NCNS2(=O)=O 1.76%
Cc1cc(C)cc(NC(=O)CCCn2c3ccccc3c(=O)c3ccccc32)c1 -21.2%
CC(=O)c1ccc(N2CCN(C(=O)CCCCn3c(=O)[nH]c4ccccc4c3=O)CC2)cc1 -8.58%
COc1ccc(Cl)cc1CNCCSc1nnnn1C -10.3%
CCOc1ccc(CNC(=O)c2cc(=O)[nH]c3ccc(S(=O)(=O)N4CCCC4)cc23)cc1 -13.3%
CCCn1cc(S(=O)(=O)c2ccc(CC)cc2)c(=O)c2cc(F)c(N(CC)CC)cc21 -16.2%
CCOc1cccc(NC(=O)CSc2ncc(-c3ccccc3)[nH]2)c1 -7.9%
Cc1cccc(N2CCN(C(=O)c3ccc4c(c3)N(Cc3cccc(Cl)c3)C(=O)c3ccccc3S4=O)CC2C)c1 (stereo not drawn) -16.6%
CCOc1cccc2sc(N3CCN(C(=O)C4CC4)CC3)nc12 -15.8%
O=C(NCC(c1ccc2c(c1)OCO2)N1CCOCC1)C(=O)Nc1cccc(Cl)c1 (stereo not drawn) -18.3%
O=C(O)c1c(CNCc2cccc(F)c2)c2ccccc2n1Cc1ccccc1 -5.18%
Cc1cc(-c2ccc(C)c(S(=O)(=O)NCC3CCN(Cc4ccc(F)cc4)CC3)c2)on1 -3.88%
Fc1cccc(Cl)c1Cn1c(-c2cccs2)nc2ccccc21 -26.5%
